Source: PMC9318647, “Human and Bacterial Toll-Interleukin Receptor Domains Exhibit Distinct Dynamic Features and Functions” (Molecules, 2022)
Results are given in words; binding and its absence hold for the method and conditions named. Some entries that bind do so weakly or less than the wild type. For some of these results: Tags and fused reporters may be left off the sequences shown.

T1: GST-TLR1-TIR chimera (human) (UniProt Q15399)
T1 sequence: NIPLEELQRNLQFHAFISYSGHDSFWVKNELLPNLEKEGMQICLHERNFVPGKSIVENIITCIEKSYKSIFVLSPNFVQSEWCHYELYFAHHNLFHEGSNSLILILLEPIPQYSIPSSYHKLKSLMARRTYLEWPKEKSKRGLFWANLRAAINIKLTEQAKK

T2: human IL-1R8 TIR domain (IL-1R8-TIR), residues 160-310 (human) (UniProt Q6IA17)
T2 sequence: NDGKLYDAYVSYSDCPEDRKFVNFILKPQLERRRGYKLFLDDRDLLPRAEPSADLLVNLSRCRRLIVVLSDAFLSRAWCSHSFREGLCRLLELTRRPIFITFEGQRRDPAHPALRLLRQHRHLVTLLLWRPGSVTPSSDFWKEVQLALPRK


Columns and labels:
[1] = target: TLR2-TIR C713A mutant (human) (UniProt O60603); experiment: SEC; analytical Superose-12; 50 mM Na2HPO4, pH 6.5, 150 mM NaCl, 1 mM DTT; TLR1-TIR and TLR2-TIR also after 30 min in 50 mM DTT (homodimers minimized); both purified
[2] = target: T1, GST-TLR1-TIR chimera (human); experiment: pull-down; 250 μM GST-TLR1 or GST alone incubated with 300 μM untagged TIR domain in 10 mM DTT, diluted to about 200 μM DTT, overnight at 4 °C, loaded on GST beads, eluted with 30 mM glutathione; disulfide-mediated cross-linking; both purified
[3] = target: T2, human IL-1R8 TIR domain (IL-1R8-TIR), residues 160-310 (human); experiment: NMR titration; 15N-labeled IL-1R8-TIR in the presence of TLR1-TIR or TLR2-TIR; chemical shift perturbations; high micromolar concentrations; both purified
[4] = target: TLR1-TIR C707A mutant (human) (UniProt Q15399); experiment: SEC; analytical Superose-12; 50 mM Na2HPO4, pH 6.5, 150 mM NaCl, 1 mM DTT; TLR1-TIR and TLR2-TIR also after 30 min in 50 mM DTT (homodimers minimized); both purified
[5] = target: T2, human IL-1R8 TIR domain (IL-1R8-TIR), residues 160-310 (human); experiment: as above

Molecule	binding [1]	binding [2]	binding [4]	binding [5]	binding [3]
human TLR1 TIR domain (TLR1-TIR), residues 625-786, untagged (domain or fragment, UniProt Q15399 625-786, looked up, human TLR1, NCBI NP_003254.2, the entire intracellular TIR region of residues 625-786; Elutes as distinct dimer and monomer peaks on Superose-12; also called untagged TLR1-TIR) NIPLEELQRNLQFHAFISYSGHDSFWVKNELLPNLEKEGMQICLHERNFVPGKSIVENIITCIEKSYKSIFVLSPNFVQSEWCHYELYFAHHNLFHEGSNSLILILLEPIPQYSIPSSYHKLKSLMARRTYLEWPKEKSKRGLFWANLRAAINIKLTEQAKK		binds			binds weakly
TLR1-TIR C707A mutant (domain or fragment, UniProt Q15399 625-786) NIPLEELQRNLQFHAFISYSGHDSFWVKNELLPNLEKEGMQICLHERNFVPGKSIVENIITCIEKSYKSIFVLSPNFVQSEWAHYELYFAHHNLFHEGSNSLILILLEPIPQYSIPSSYHKLKSLMARRTYLEWPKEKSKRGLFWANLRAAINIKLTEQAKK		binds	no binding		
human TLR2 TIR domain (TLR2-TIR), residues 633-784, untagged (domain or fragment, UniProt O60603 633-784, looked up, human TLR2, NCBI NP_001305716.1, the entire intracellular TIR region of residues 633-784; 15N-labelled in the NMR experiments; Elutes as distinct dimer and monomer peaks on Superose-12; also called 15N-TLR2-TIR) KAPSRNICYDAFVSYSERDAYWVENLMVQELENFNPPFKLCLHKRDFIPGKWIIDNIIDSIEKSHKTVFVLSENFVKSEWCKYELDFSHFRLFDENNDAAILILLEPIEKKAIPQRFCKLRKIMNTKTYLEWPMDEAQREGFWVNLRAAIKS		binds			binds weakly

Second part, led by results:

binding [1]	binding [2]	binding [4]	binding [5]	Molecule	binding [3]
no binding	binds			TLR2-TIR C713A mutant (from UniProt O60603 633-784) (domain or fragment)	
	binds		no binding	human IL-1R8 TIR domain (IL-1R8-TIR), residues 160-310 (domain or fragment, UniProt Q6IA17 160-310) NDGKLYDAYVSYSDCPEDRKFVNFILKPQLERRRGYKLFLDDRDLLPRAEPSADLLVNLSRCRRLIVVLSDAFLSRAWCSHSFREGLCRLLELTRRPIFITFEGQRRDPAHPALRLLRQHRHLVTLLLWRPGSVTPSSDFWKEVQLALPRK	
